Test results reported in paper PMC12796746.
No constants are given. Whether binding was seen depends on the method and setting. Some entries that bind do so weakly or less than the wild type.

Sequences of proteins named here, by UniProt entry; tags and fusion partners are left off.
UniProt Q9BQE6: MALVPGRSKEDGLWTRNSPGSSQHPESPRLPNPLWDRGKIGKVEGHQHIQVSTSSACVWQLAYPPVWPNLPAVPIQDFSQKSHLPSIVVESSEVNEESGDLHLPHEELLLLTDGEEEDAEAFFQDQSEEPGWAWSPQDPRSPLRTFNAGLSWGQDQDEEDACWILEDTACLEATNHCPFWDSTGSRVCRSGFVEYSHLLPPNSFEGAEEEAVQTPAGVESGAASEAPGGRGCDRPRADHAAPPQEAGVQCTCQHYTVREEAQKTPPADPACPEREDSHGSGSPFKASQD

Key:
Experiment in all cases: peptide or protein array; HuProt Human Proteome Microarray v2.0, full-length human proteins spotted in duplicate; V5-tagged TRPV4 protein in solution at 1 μM, 1 h at 4 °C, 150 mM NaCl, 2.7 mM KCl, 25 mM Trizma base, 0.05% Tween-20, pH 7.4; detected with Alexa Fluor 647 anti-V5; hit: z-score >= 2 (N terminus: both of 2 slides; ARD constructs: at least 2 of 3 slides); both purified
[1] = target: T1, DNA fragmentation factor subunit alpha (human) (UniProt O00273)
T1 sequence: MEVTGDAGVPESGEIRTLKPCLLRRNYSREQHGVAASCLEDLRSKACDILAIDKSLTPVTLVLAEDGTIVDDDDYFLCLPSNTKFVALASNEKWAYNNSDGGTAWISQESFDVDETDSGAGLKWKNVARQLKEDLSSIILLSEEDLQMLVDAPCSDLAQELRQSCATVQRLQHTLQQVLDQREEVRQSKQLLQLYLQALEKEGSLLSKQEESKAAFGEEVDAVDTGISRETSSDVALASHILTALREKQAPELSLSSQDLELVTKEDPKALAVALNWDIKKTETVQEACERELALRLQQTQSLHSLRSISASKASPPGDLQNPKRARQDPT

[2] = target: T2, Progestin and adipoQ receptor family member 3 (human) (UniProt Q6TCH7)
T2 sequence: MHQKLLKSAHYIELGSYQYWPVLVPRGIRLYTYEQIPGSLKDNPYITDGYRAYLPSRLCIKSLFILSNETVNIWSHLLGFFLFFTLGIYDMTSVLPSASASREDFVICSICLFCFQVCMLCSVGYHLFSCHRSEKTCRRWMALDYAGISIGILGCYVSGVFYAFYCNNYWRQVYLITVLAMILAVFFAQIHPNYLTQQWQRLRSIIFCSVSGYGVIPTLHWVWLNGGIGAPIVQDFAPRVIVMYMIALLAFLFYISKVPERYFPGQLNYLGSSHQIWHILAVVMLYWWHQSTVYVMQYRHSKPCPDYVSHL

[3] = target: LBH domain-containing protein 1 (human) (UniProt Q9BQE6)
[4] = target: T3, Rab11 family-interacting protein 1 (human) (UniProt Q6WKZ4)
T3 sequence: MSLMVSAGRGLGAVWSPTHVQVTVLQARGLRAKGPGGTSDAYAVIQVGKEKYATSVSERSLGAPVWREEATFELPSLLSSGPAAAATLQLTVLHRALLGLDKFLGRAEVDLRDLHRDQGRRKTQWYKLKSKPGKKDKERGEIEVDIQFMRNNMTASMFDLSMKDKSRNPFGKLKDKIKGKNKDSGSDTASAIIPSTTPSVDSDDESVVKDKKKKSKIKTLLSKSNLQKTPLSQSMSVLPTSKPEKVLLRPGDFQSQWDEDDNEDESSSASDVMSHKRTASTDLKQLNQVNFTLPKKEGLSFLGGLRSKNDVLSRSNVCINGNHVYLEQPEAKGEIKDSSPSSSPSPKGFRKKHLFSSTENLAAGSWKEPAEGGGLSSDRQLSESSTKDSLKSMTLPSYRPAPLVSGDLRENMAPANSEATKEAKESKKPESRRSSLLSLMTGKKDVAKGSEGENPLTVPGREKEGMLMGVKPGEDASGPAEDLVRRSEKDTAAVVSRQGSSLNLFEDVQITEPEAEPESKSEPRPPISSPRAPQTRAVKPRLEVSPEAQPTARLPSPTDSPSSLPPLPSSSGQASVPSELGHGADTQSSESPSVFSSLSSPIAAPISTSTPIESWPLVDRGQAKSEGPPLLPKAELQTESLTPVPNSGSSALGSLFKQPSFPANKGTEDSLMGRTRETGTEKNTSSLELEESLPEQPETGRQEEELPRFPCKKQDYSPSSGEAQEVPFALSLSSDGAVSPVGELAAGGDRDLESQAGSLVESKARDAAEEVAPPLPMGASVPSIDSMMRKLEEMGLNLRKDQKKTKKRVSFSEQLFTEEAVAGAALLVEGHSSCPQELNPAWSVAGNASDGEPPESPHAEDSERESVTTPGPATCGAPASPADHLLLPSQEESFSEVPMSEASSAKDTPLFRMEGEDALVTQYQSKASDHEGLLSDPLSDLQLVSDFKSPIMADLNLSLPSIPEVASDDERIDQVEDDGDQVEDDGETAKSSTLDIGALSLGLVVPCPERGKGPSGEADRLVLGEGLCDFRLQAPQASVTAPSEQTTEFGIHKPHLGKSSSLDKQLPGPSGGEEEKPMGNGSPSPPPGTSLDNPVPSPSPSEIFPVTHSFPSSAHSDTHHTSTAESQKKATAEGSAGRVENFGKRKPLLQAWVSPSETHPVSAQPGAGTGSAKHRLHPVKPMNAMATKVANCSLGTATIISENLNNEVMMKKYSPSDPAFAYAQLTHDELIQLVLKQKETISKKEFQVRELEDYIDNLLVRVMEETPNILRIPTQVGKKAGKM

binding [1]	binding [2]	binding [3]	binding [4]	Substance
no binding (tested: 1 μM)	no binding (tested: 1 μM)	no binding (tested: 1 μM)	no binding (tested: 1 μM)	TRPV4^R269C-ARD (from UniProt Q9HBA0 149-397) (domain or fragment)
no binding (tested: 1 μM)	no binding (tested: 1 μM)	no binding (tested: 1 μM)	no binding (tested: 1 μM)	TRPV4^R315W-ARD (from UniProt Q9HBA0 149-397) (domain or fragment)
			binds	TRPV4^WT-ARD (amino acids 149-397) (from UniProt Q9HBA0 149-397) (domain or fragment)
